Experimental data taken from US7361680B2, “Indole compounds useful for the treatment of cancer” (The Regents of the University of California, priority 1999, dated 2008).

What was measured:
[1] = system: primary CLL cells; assay: Flow cytometry apoptosis assay (DiOC6/PI), primary CLL cells; format: cell-based; details: Homo sapiens, CLL cell, 48 hours, tested at 100, 250, 500, 750 μM
[2] = system: PPAR-γ; assay: PPAR-γ reporter gene (luciferase) assay in transfected RAW264.7 cells; format: cell-based; details: 24 hours, FIG. 13

| Compound | EC50 [1] [µM] | activation of a PPAR-γ reporter gene construct (luciferase activity) [2] |
| --- | --- | --- |
| CCc1cccc2c3c([nH]c12)C(CC)(CCCl)OCC3 (stereo not shown) [Compound 4, 1-(2-Chloroethyl)-1,8-diethyl-1,3,4,9-tetrahydropyrano[3,4-b]indole] | < 100 | – |
| CCc1cccc2c3c([nH]c12)C(CC)(CCOC(C)=O)OCC3 (stereo not shown) [Compound 10, Acetic acid-2-(1,8-diethyl-1,3,4,9-tetrahydropyrano[3,4-b]indol-1-yl)-ethyl ester] | 250 to 500 | – |
| CCc1cccc2c3c([nH]c12)C(CC)(CC=N)OCC3 (stereo not shown) [Compound 7, 2-(1,8-Diethyl-1,3,4,9-tetrahydropyrano[3,4-b]indol-yl)-ethylideneamine] | 250 to 500 | – |
| CCc1cccc2c3c([nH]c12)C(CC)(CC(C)O)OCC3 (stereo not shown) [Compound 12, 1-(1,8-Diethyl-1,3,4,9-tetrahydropyrano[3,4-b]indol-1-yl)-propan-2-ol] | 100 to 250 | – |
| CCc1cccc2c3c([nH]c12)C(CC)(CCO)OCC3 (stereo not shown) [Compound 1, 2-(1,8-Diethyl-1,3,4,9-tetrahydropyrano[3,4-b]indol-1-yl)-ethanol] | 100 to 250 | – |
| CCc1cccc2c3c([nH]c12)C(CC)(CC(N)=O)OCC3 (stereo not shown) [Compound 6, 2-(1,8-Diethyl-1,3,4,9-tetrahydropyrano[3,4-b]indol-1-yl)-acetamide] | 100 to 250 | – |
| CCc1cccc2c3c([nH]c12)C(CC)(CCOCSC)OCC3 (stereo not shown) [Compound 9, 1,8-Diethyl-1-(2-methylsufanylmethoxyethyl)-1,3,4,9-tetrahydropyrano[3,4-b]indole] | ~250 | – |
| CCc1cccc2c3c([nH]c12)C(CC)(CCOC)OCC3 (stereo not shown) [Compound 2, 1,8-Diethyl-1-(2-methoxyethyl)-1,3,4,9-tetrahydropyrano[3,4-b]indole] | 250 to 500 | – |
| CCc1cccc2c3c([nH]c12)C(CC)(CC=O)OCC3 (stereo not shown) [Compound 8, (1,8-Diethyl-1,3,4,9-tetrahydropyrano[3,4-b]indol-1-yl)-acetaldehyde] | < 100 | – |
| CCc1cccc2c3c([nH]c12)C(CC)(CC(O)O)OCC3 (stereo not shown) [Compound 11, 2-(1,8-Diethyl-1,3,4,9-tetrahydropyrano[3,4-b]indol-1-yl)-ethane-1,1-diol] | 250 to 500 | – |
| CCc1cccc2c3c([nH]c12)[C@](CC)(CC(=O)O)OCC3 [S-etodolac] | – | activated |
| CCc1cccc2c3c([nH]c12)C(CC)(CCF)OCC3 (stereo not shown) [Compound 3, 1,8-Diethyl-1-(2-fluoroethyl)-1,3,4,9-tetrahydropyrano[3,4-b]indole] | 250 to 500 | – |
| CCc1cccc2c3c([nH]c12)[C@@](CC)(CC(=O)O)OCC3 [R-etodolac] | 100 to 250 | activated |
| CCc1cccc2c3c([nH]c12)C(CC)(CC)OCC3 [Compound 5, 1,1,8-Triethyl-1,3,4,9-tetrahydropyrano[3,4-b]indole] | 250 to 500 | – |
| CCc1cccc2c3c([nH]c12)C(CC)(CC(C)=O)OCC3 (stereo not shown) [Compound 13, 1-(1,8-Diethyl-1,3,4,9-tetrahydropyrano[3,4-b]indol-1-yl)-propan-2-one] | 250 to 500 | – |
